55 compounds from PubChem BioAssay AID463173 (ICCB-Longwood Screening Facility, Harvard Medical School, 2010) can be followed below.

Out of some 52,000 compounds screened, about 1,700 (3.3%) were called active. Rule as the data show it: active = survival mostly below about 52% (no sharp cut-off); inactive = mostly above about 56%. The list shows a part of the results.

For the test, the system named is Wild type. Put plainly: growth inhibition of S. aureus wild type versus tarO mutant, primary screen, teichoic acid synthesis inhibitors, RN4220, OD600 (AID 463173). Conditions: S. aureus RN4220 wild type/DeltatarO growth, OD600, 18 h, hits give low values, screened at 18.75 µg/mL (by protocol).
As for `CCn1c(=O)cc(SCC(=O)N2CCN(c3cc(C)ccc3C)CC2)c2ccccc21`, the survival is inactive: 36%.

In the case of `COc1ccccc1NC(=O)CCNS(=O)(=O)c1ccc2c(c1)CCCC(=O)N2`, the survival is inactive: 72%.

As to `CCOc1ccccc1CNC(=O)c1cnc2sc(N3CCC(C)CC3)nn2c1=O`, the survival is inactive: 85%.

For `O=C(CSc1nnc(-c2ccccc2)o1)N1CCCc2ccccc21`, the survival is inactive: 68%.

Consider `Cc1nn(C(C)C(=O)NCc2cccc(F)c2)c(=O)c2c1sc1ccccc12` (stereo not given), for which the survival is inactive: 75%.

As for `CCc1ccc(-c2csc(-c3cc4cc(Br)ccc4oc3=O)n2)cc1`, the survival was inactive: 128%.

On to `COc1ccc(C(=O)Nc2nnc(S(=O)(=O)N3CCOCC3)s2)cc1`, for which the survival was inactive: 107%.

For the compound `O=C1CCCc2c1cc(C(=O)Nc1ccc(Cl)cn1)c(=O)n2-c1ccccc1`, the survival is inactive: 110%.

As for `CCN(CC)C(=O)Cn1cc(SCC(=O)Nc2ccc(C)cc2)c2ccccc21`, the survival was inactive: 90%.

With `CCOC(=O)N1CCc2c(sc3c2c(=O)n(-c2ccc(Cl)cc2)c(=O)n3CC(=O)Nc2ccccc2)C1`, the survival is inactive: 81%.

Take `Cc1ccc(C)c(N2CCN(C(=O)Cn3nc(Cc4cccnc4)c4ccccc4c3=O)CC2)c1`: the survival was inactive: 83%.

As to `COc1ccc(C)cc1NC(=O)C(NS(=O)(=O)c1cccc2nsnc12)c1ccccc1` (stereo not given), the survival is inactive: 64%.

As for `Cc1cccc(CNC(=O)C2CCN(c3nc4ccc(Cl)cc4[nH]3)CC2)c1`, the survival was inactive: 79%.

On to `CCCC1(C(=O)OCC)NC(c2ccc(N(C)C)cc2)C2C(=O)N(c3ccc(OCC)cc3)C(=O)C21` (stereo not given), for which the survival is inactive: 108%.

For the compound `COc1ccc(CN(CC(=O)NC2CCCC2)C(=O)Cn2nnc(-c3ccc(OC)cc3)n2)cc1`, the survival is inactive: 116%.

Regarding `Cc1cc(C)c2c(C)c(C(=O)N3CCC(c4nc5ccccc5s4)CC3)oc2c1`, the survival is inactive: 67%.

Consider `COc1ccc(C2Nc3ccccc3-c3nnc(SC)nc3O2)cc1C` (stereo not given), for which the survival is inactive: 69%.

As to `COc1cc(C2c3c(oc4ccc(C)cc4c3=O)C(=O)N2Cc2ccc(F)cc2)ccc1O` (stereo not given), the survival was inactive: 83%.

With `Cc1nc2c3ccccc3nc(NNC(=O)CCC(=O)N3CCN(c4ccccc4F)CC3)n2n1`, the survival is inactive: 85%.

Turning to `Cc1ccc(NC(=O)CCC(=O)N2CCOc3ccccc32)c(Cl)c1`, the survival is inactive: 78%.

Consider `Cc1ccc(C(=O)Nc2ccccc2F)cc1S(=O)(=O)N1CCOCC1`, for which the survival was inactive: 74%.

For the compound `c1cc2c(cc1CNC1CCCC1)OCO2`, the survival is inactive: 104%.

Regarding `N#Cc1ccccc1NC(=O)C(=O)NCC(c1ccc2c(c1)OCO2)N1CCN(c2ccccc2)CC1` (stereo not given), the survival is inactive: 132%.

With `Cc1nc2cccnc2n1-c1cccc(C(=O)NCCc2ccc(Cl)cc2)c1`, the survival is inactive: 73%.

For the compound `CCC(=O)Nc1ccc(-c2nc3c(C)cccc3c(=O)o2)cc1`, the survival was inactive: 96%.

With `Cc1c(C(=O)Nc2ccc(Br)cc2F)sc2ncnc(N(C)C3CCCCC3)c12`, the survival was inactive: 75%.

Consider `COc1cc(CN2CCc3nc(N4CCN(c5ccccc5F)CC4)ncc3C2)ccc1OC(C)C`, for which the survival was inactive: 133%.

Take `CCC(=O)N1CCCc2cc(S(=O)(=O)Nc3ccc(C)c(C)c3)ccc21`: the survival was inactive: 73%.

As to `CCCCN(CC)C(=O)Cn1c(=O)n(-c2ccc(OCC)cc2)c(=O)c2c3c(sc21)CCCC3`, the survival is inactive: 97%.

`O=C(Nc1ccc2nc(SCC(=O)N3CCCc4ccccc43)sc2c1)c1ccc(F)cc1`: the survival was inactive: 84%.

Consider `CCOC(=O)c1c(C)[nH]c(C)c1S(=O)(=O)NCC(=O)N(C)c1ccc(C)c(C)c1`, for which the survival was inactive: 136%.

Take `O=C(Nc1c(C(=O)c2ccccc2)oc2ccccc12)c1cc(=O)c2ccccc2o1`: the survival is inactive: 86%.

For the compound `Cn1cnc(S(=O)(=O)N2CCC(C(=O)N3CCN(c4cccc(C(F)(F)F)c4)CC3)CC2)c1`, the survival is inactive: 124%.

In the case of `Cc1ccc(S(=O)(=O)CCc2nnc(NC(=O)C3CCCN3C(=O)NC3CCCCC3)s2)cc1` (stereo not given), the survival was inactive: 111%.

Take `Cn1cccc1C(C(=O)NC1CCCCC1)N(C(=O)Cc1cccs1)c1ccccc1` (stereo not given): the survival was inactive: 112%.

`CN(CCC#N)C(=O)C1CCN(S(=O)(=O)c2ccc(-n3cnnn3)cc2)CC1`: the survival is inactive: 100%.

For `CC(C)(C)c1ccc(NC(=O)CSc2nnc3scc(-c4ccccc4)n23)cc1`, the survival was inactive: 60%.

Consider `CSc1ncc(C(=O)Nc2ccccc2C(=O)c2ccccc2)c(C)n1`, for which the survival is inactive: 75%.

As to `CCOC(=O)c1cnc2c(OC)cccc2c1Nc1cccc(O)c1`, the survival was inactive: 73%.

`CC(C)CCn1c(Br)nc2c1c(=O)n(Cc1ccccc1)c(=O)n2C`: the survival is inactive: 103%.

As to `COc1ccc(NC(=O)CSc2nc(-c3ccccc3)nc3cc(=O)[nH]n23)cc1`, the survival is inactive: 73%.

As for `COc1ccc(Cn2c(SCc3ccc(C(=O)NCCc4ccccc4)cc3)nc3cccnc32)cc1`, the survival is inactive: 77%.

For the compound `Cn1c(=O)n(C/C=C/c2ccccc2)c(=O)c2c1nc1n2CCN1c1ccc(Cl)cc1`, the survival was inactive: 85%.

Consider `CCN(CC)c1nn2c(=O)c(C(=O)NCc3cccc(C)c3)cnc2s1`, for which the survival was inactive: 71%.

For `CCCN1CCN(CCCNC(=O)Cn2c(-c3cccs3)cc3ccccc32)CC1`, the survival is inactive: 94%.

Turning to `Cc1ccc(NC(=O)CSc2ncnc3c2sc2ccccc23)cc1C`, the survival is inactive: 126%.

On to `Cc1nn(C(=O)c2cccc(F)c2)c(C)c1S(=O)(=O)N1CCCCCC1`, for which the survival was inactive: 84%.

As for `O=C1CCCN1Cc1ncnn1-c1ccccc1`, the survival was inactive: 108%.

Take `CCC(C)NC(=O)Cn1c(=O)n(Cc2ccc(C(=O)NCc3ccccc3OC)cc2)c(=O)c2ccccc21` (stereo not given): the survival is inactive: 97%.

With `Cn1nc(-c2ccccc2F)c2cc(C(=O)N3CCN(c4ccc(F)cc4)CC3)sc21`, the survival was inactive: 49%.

Regarding `CCOC(=O)c1[nH]c(C)c(CCC(=O)NCc2ccccc2C)c1C`, the survival is inactive: 135%.

Take `CCn1cc(S(=O)(=O)c2ccc(C)cc2)c(=O)c2cc(F)c(N3CCCCCC3)cc21`: the survival was inactive: 73%.

Regarding `CCOc1ccc(C(=O)C(CC(CN2CCOCC2)C(=O)c2ccc(OCC)cc2)CN2CCOCC2)cc1` (stereo not given), the survival is inactive: 121%.

`CC(c1ccccc1F)n1cc(C(=O)NCCCn2ccnc2)nn1` (stereo not given): the survival is inactive: 103%.

`Cc1ccc(C)c(NC(=O)CSc2nc(=O)n(Cc3ccccn3)c3c2CCC3)c1`: the survival was inactive: 74%.
